# Measured values: the supplement of paper PMC11417369
# ± gives the standard deviation of the averaged measurements. This is one part of the list.
# Tested on: PfAP2-I AP2 domain 3 (GST-tagged)
# Test: gcPBM binding intensity (ln(normalized median fluorescence intensity)); higher = stronger DNA binding
# Summary of the method: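 Plasmodium falciparum DNA-binding domains carrying a GST tag were expressed in E. coli and applied for 1 h, at about 25 μg on average, to an Agilent 4 × 180k array. The array held primer-extended double-stranded 36-bp intergenic genomic probes together with negative controls, and binding took place in 1× PBS with 1% milk, 0.2 mg/ml BSA, 0.5% salmon testes DNA and 0.03% Triton X-100. An Alexa488 anti-GST antibody detected bound protein, and the array was scanned at 488 nm. Binding intensity is taken as the highest Masliner-normalised natural-log median intensity across replicate spots of either probe orientation.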
row,Sequence,gcPBM binding intensity (ln)
1,ATATTTCTGTCAAGCACACATAATATTAAAATATGT [CACACA_site4330],7.91 ± 0.49
2,ATGTTTGTCTATAGCTGTACCTATTTATAAAACGTA [XGTACX_site7157],8.04 ± 0.49
3,TCATATTATAATGTGAGTACATATAATAAATAAGTT [XGTACX_site2470],7.74 ± 0.27
4,TTAATATGATATATATATATATATATATATATATAT [CACACA_negctrl_site683],9.1 ± 0.62
5,GTAAAAATTTTAAATACATGCAAGCGATTAATATGA [TGCATGCA_site80],7.75 ± 0.79
6,ACCTCATAATATTTAACACACAAAATTAAATGTATG [CACACA_site6898],8 ± 0.31
7,TTTCAAAAAAATAATGTGCACATTAGAAAATAAATA [GTGCAC_site9416],9.59 ± 0.29
8,TTTTATACATATTTTACACACTAAAATATACATATA [CACACA_site324],8.05 ± 0.54
9,GAAGTATTTATTTATGCATGCAAATATACAAAAAAA [TGCATGCA_site975],8.32 ± 0.77
10,ACATATATTTAAAAATGTACTTACATATATTTTTTA [XGTACX_site6050],7.55 ± 0.45
11,ATAAAATAAATATTTTGTTATTTATTTAATCTAATA [XGTACX_negctrl_site404],7.2 ± 0.38
12,TAAATATTTTTAGATGCATGCAATAATTACCCAAAG [TGCATGCA_site636],8.15 ± 0.78
13,TTATTATTATTACTAGTGCATTAATTATATATGTAA,11.6 ± 0.49
14,TTTTTTTTTTCTGAAAGTACTAATTTCCTGGAGGAA [XGTACX_site759],7.64 ± 0.65
15,TTATGTTGTAAATGCACACATACATAAACTCAGTTT [CACACA_site5639],9.92 ± 0.44
16,AAAAATAAAATAAAGAAGGAAAATAAAAAAATAAGG [CACACA_negctrl_site1811],7.84 ± 0.57
17,AGGAGGTCAGTTCACAGTACCCAGGAAATCTACGGA [XGTACX_site2552],7.7 ± 0.52
18,AAACATAAGAGACACACACACATATATAAATAAATA [CACACA_site7674],7.75 ± 0.4
19,AATTTCATAAATATAACTGAGAATAAATAAACAAAG [GTGCAC_negctrl_site146],7.85 ± 0.44
20,CCTGTAAATAAATATAAATACATATTTCTAATATAT [GTGCAC_negctrl_site21],7.51 ± 0.43
21,ATATAAAAATGTGTATGTACACACTTTATTTTTAAT [XGTACX_site5272],7.8 ± 0.3
22,AAATTACAAATACAAACACACAAATGTTTTTCATTC [CACACA_site3552],7.43 ± 0.59

row,Sequence,gcPBM binding intensity (ln)
1,TTTTTCTATAAAAAATGTACATATTTTATGAAGGAA [XGTACX_site821],7.96 ± 0.5
2,TTAAAAAACCTTAGATGTACAGTTATATATAAAATA [XGTACX_site6688],7.75 ± 0.45
3,ATCCTTTATTTTTTTTGTACATAAAAATAACTCGAG [XGTACX_site3885],8.2 ± 0.43
4,TGAACACACGAGCACACACACACATCTATATTTATA [CACACA_site6607],8.15 ± 0.49
5,TGGAATAATACGCGTACACACATATATATATTAATA [CACACA_site131],8.14 ± 0.4
6,AGGTATCAAAAATATGCATGCAATATTTTATGTAAT [TGCATGCA_site1055],8 ± 0.86
7,AAAAAAAAATTAATATATAAAAGGATATATATATAT [GTGCAC_negctrl_site449],9.08 ± 0.21
8,GAATAATATATATATTGTACTTTTTATTTATATTAT [XGTACX_site3180],7.8 ± 0.36
9,AAAATATAATATAATGCACACATAAAACAAAAAAAA [CACACA_site8989],10.7 ± 0.67
10,CTTTTTTTTTTTTTTACACACCCAAATCACATACAT [CACACA_site4051],8.45 ± 0.28
11,ATATATATATTTATATGTACGAAATATAAAAAAAAA [XGTACX_site5054],8.59 ± 0.47
12,ACATATAAATATATTACACACACACTAAAAAAATAA [CACACA_site6209],7.95 ± 0.3
13,CACCTTATAAATACTGCACACATAAAATATATATTA [CACACA_site8908],10.2 ± 0.49
14,CTTATCAAAAAAAAAGCATGCCACAGGCAAAAGGTA [TGCATGCA_site574],7.76 ± 0.88
15,ATATATATATATATATGTACATATATACATATACAT [XGTACX_site2350],9.3 ± 0.55
16,AAGAAAAACTTTACGTGTACCAAACATCCTGCCAAC [XGTACX_site598],8.14 ± 0.42
17,AGTGATACTAATTTTTGTACGCATAAAAGAATATTC [XGTACX_site6055],8.1 ± 0.32
18,TATATTGATGATGATAGTACGTATGATTAGAAAAAA [XGTACX_site8989],7.92 ± 0.63
19,ATAGACAGCGCACAAACACACAAACACCCACCCACA [CACACA_site8043],9.12 ± 0.16
20,TATATATATATGTGTACACAATTTATCTGTATTTAT [CACACA_site5945],9.31 ± 0.19
21,AAAAAAAAAAAAATACGTACATACATACCTACATAT [XGTACX_site233],8.21 ± 0.099
22,TTTTTTTTTTTTTTTTGTACGTATCAAAAAATTTGT [XGTACX_site1023],7.95 ± 0.56
